In the supplement of paper PMC11417369:
The other results are listed elsewhere or left out.

The sequences below were run on PfHDP1 homeodomain (GST-tagged) (assay: gcPBM binding intensity (ln(normalized median fluorescence intensity)); higher = stronger DNA binding).
Summary of the method: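 GST-tagged P. falciparum DNA-binding domains, expressed in E. coli (about 25 μg on average), were applied for 1 h to an Agilent 4 × 180k array of primer-extended double-stranded 36-bp intergenic genomic probes plus negative controls. The binding buffer was 1× PBS with 1% milk, 0.2 mg/ml BSA, 0.5% salmon testes DNA and 0.03% Triton X-100. Bound protein was detected with Alexa488 anti-GST antibody and scanned at 488 nm. Binding intensity is the highest Masliner-normalised natural-log median intensity across replicate spots of either probe orientation.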

Sequence	gcPBM binding intensity (ln)
AAATAGAGAAATACAAGTACATATCAAACCAATATA [XGTACX_site1192]	6.25
CTTTTGTCATTCTTTTGTACACAGTTTGAAATATGT [XGTACX_site1457]	6.93
ATAATAAATAAATAATGTACATATGAAAGAATAAAT [XGTACX_site8355]	7.34
TCATATATTTTAATATGTACACATTTTTTTGGTATA [XGTACX_site8695]	6.22
TACAGACTAAAATACACACACACACGCACATATATA [CACACA_site7875]	7.33
TTTTTCTTTATTAGCACACATAATATTATATATGTG [CACACA_site2629]	7.1
TACATTTATATATATACACACACACTAATAAAAAAA [CACACA_site8845]	7.01
ATATGTATATATAAGGTGCAGAAAGGTGGGCAAAAG	9.15
TAAATACAGATATATACACACATATATATATTTTAT [CACACA_site5970]	6.54
ATTATTTGTTTAATGAGTACGAAGACAAATTTTACC [XGTACX_site5223]	6.8
TATATACACAGACACACACACACATACACGCACATA [CACACA_site6909]	7.92
GTACTATACAAAGATGATAATCAATATATATATATA [XGTACX_negctrl_site264]	9.11
AAAGGAAAAAAAAGCACACACAATATTACTTGAAAT [CACACA_site2588]	6.9
ATATAAACAATATTTTGTACATAATTTTATGAGCAT [XGTACX_site6933]	6.63
AAAGAAAGAAGAAATTGTACATAATAAATAAGTAAA [XGTACX_site3311]	6.25
GCATATGTTTATTGCACACACCAAAAAGAAAACATA [CACACA_site4384]	10.5
ATTCTTTTAAAATAGGTGCTAAAAATAATATGTTAC	7.19
TTCACCAGTTGGTAAACATGCAATTTTCCATACAAG [TGCATGCA_site267]	6.4
AAAAAAAACGGACACACACACATACCCATACATACA [CACACA_site5574]	6.69
ATATAAATACATAAATGTACTTACCATTTAAATATG [XGTACX_site5254]	6.28
CAAACAATTAAACAAACACACATATACAAGTATTTA [CACACA_site5177]	6.37
TATATTTACTTATGAAGTACATATATATATATATAT [XGTACX_site5069]	9.37
TGTTCTTTTTATACTACACACTGATAAAAAAACAAA [CACACA_site3001]	6.75

Sequence	gcPBM binding intensity (ln)
TTTAAGTTTTTACTTTGTACGTATTATAATAAAATC [XGTACX_site5683]	6.45
TTTAAAACCTTACATACACACAAATATATATATATA [CACACA_site677]	9.19
AATGCTATCATTAATGCACACATTTAAAATTAATAT [CACACA_site3548]	10
ATAATAAAAAATACAAGTACACATATTATATATATA [XGTACX_site5355]	7.56
ACATCAAGCAGACACACACACACACCCACCCACCCA [CACACA_site8012]	6.5
CAGGCACTAATAAACACACACATATAAATATAAATA [CACACA_site6320]	6.58
TTTTTTTTTTTTTTTTGTACTCATACATACTATCAT [XGTACX_site3650]	6.19
AATTTCTACTATTGTATGCACTTTCATACATACATA [GTGCAC_site9924]	7.53
AACACAAGAACAGAACGTACACACACATATATATAT [XGTACX_site7347]	8.73
AGGTGTGAGACCACGTTCACAAAATAAAATACATAA [CACACA_negctrl_site326]	6.36
GCTTGAATAATCAATAGTACACACATATAAATATAT [XGTACX_site5964]	6.55
TTTATTTTCATATGAACACACATATTTATATTATAA [CACACA_site7165]	7.01
TACAATCTAAGGAGCACACAAAAATGGATAAATATA [CACACA_site933]	6.69
TAATAAAAGAAAAAAAGTACAGACATATTGAATTTT [XGTACX_site5044]	6.16
ATACATACATATATATGTACTTATATTTTACACATT [XGTACX_site1688]	6.88
TATTTATAAGTTTACGCATGCATATAATTATTAATA [TGCATGCA_site311]	6.23
TTTTTTTTTTTTTTTGTGCACAATTATTTCAATTTT [GTGCAC_site9884]	10.2
TAATATTTATAATAGTGTACACAATTATAAACTGAA [XGTACX_site8426]	6.8
ACCTTATTTATTATTGCATGTGACCATCAGATGGTA [TGCATGCA_site288]	7.79
TTTATTTTTTACCAAGTGCAATATATTATAATAATA	8.63
TGTATGTTATGTATATGTACATATCTTTGTATTTAT [XGTACX_site6920]	6.6
AAATAAATTAAAATAAATTAAATTAAATTAGCATTA [GTGCAC_negctrl_site531]	5.8
TTTTAAATAATTCGTAATTATAATTATGGAAAAAAG [CACACA_negctrl_site152]	6.62

Sequence	gcPBM binding intensity (ln)
TATCCATGCATTTACACACACACAAAAAAAAATTCT [CACACA_site4100]	7.12
ATTTTTTTTTTTAATACACACAATTTTGATGAAGCA [CACACA_site3157]	6.75
ACATTACCATATAAAACACACAAACATACATACATA [CACACA_site7709]	6.81
TATAATATTTGGTGCACACAAATTAACAACTGTTTA [CACACA_site3742]	10.8
TTTCATAAGAGAAAGACACACAAATATATATTTATT [CACACA_site827]	6.31
AAAGAAAAAAAATAATGTACTTATGTATTTCAGAAA [XGTACX_site3570]	6.03
ATATATATGCATAATACACACATCATATAATTAACC [CACACA_site1643]	7.27
TTCATACATAGAAAATGTACATATATATATATATAT [XGTACX_site1895]	9.3
AAGATATGTACTAATACACACACATATATATATATA [CACACA_site8249]	9.28
AAAAAAAAAAACAATACATGCATAATATTAATAAAA [TGCATGCA_site913]	6.47
TACAAAATATTTTACACACACATATAAATACAGATA [CACACA_site5447]	6.82
ATACAAATAAAAAAAAAAATTATAAAATTATAAAAT [CACACA_negctrl_site914]	6.09
AGTGATAATTTAAAAAGTACAAATGAAATTTAGCTA [XGTACX_site3375]	6.22
TATATATAAAGCAGTACACACATTTATTTTAGATAC [CACACA_site3387]	6.48
AGAGAGAAAGCTATAACATGCAAAAATTTTTAGAAC [TGCATGCA_site420]	7.01
CATATATATATATATTGTACACATTTTTTATAAAAA [XGTACX_site2526]	6.96
TATTTGCAATATAACACACACAAAAAAAGACTCGGA [CACACA_site6891]	9.04
AATTATACATTATATTGTACATATGAATAATTAAAA [XGTACX_site6829]	6.22
TATATGTAATATATATGTACGTATAATATAATATTG [XGTACX_site8620]	6.45
TATATAATACAAAAGGGTACATTAACATATTATATA [XGTACX_site3196]	6.74
CTATTATCGGTTCCTACACACAAATATAGATGTCTA [CACACA_site7651]	6.73
TTTGTAACTTCTTTCACACATATATATATATATATA [CACACA_site5603]	9.41
GTGTGCAAAAATTGTTGTACATTATATATAAAAAAA [XGTACX_site3246]	10.6

Sequence	gcPBM binding intensity (ln)
TTTCACATATATATGGTGCATATTTTATGTGTAAAT [GTGCAC_site9937]	9.91
ACCTCACAAATGAATACACACAAACATATATATTTA [CACACA_site4976]	7.1
AATATCATCCTTTTTTTTTATAAAATTTAAAATATA [CACACA_negctrl_site844]	6.51
ATTTTATGTTGAAAGTGTACGTATTAATATGTAGAA [XGTACX_site245]	6.6
TATAAGAGAATATATACACACAAAAATAAATACAGT [CACACA_site5000]	7.2
TATTTTATTATACCAAGTACAAAATTTAAATATGAA [XGTACX_site5478]	6.32
AACAAAAAAAAAAAATGTACATATATATAATATATT [XGTACX_site3829]	6
CCACAAGCAGCGGAAACATGCATATGTTGAAATAAT [TGCATGCA_site610]	6.13
TCATTTCACAAACACACACACACAATATATTTCCTT [CACACA_site3905]	7.12
TATATATATATATATTGTACCCTTTTCAAACTTCTC [XGTACX_site2812]	9.24
TAATAATATTATTAATGTACAAATATATATACATAT [XGTACX_site7348]	6.38
GTTAAGAATATGTGTACACATATACATAAATACATA [CACACA_site4254]	7.12
AATAGCTAGCTGTGCACACAAACATATTTTCCAAAT [CACACA_site880]	10.3
AACAACTATTAATTTACACACATGTATATATTTTAC [CACACA_site3116]	6.82
GGATGGAGTAGTTAAGCATAATAAATAAAATTATGT [CACACA_negctrl_site578]	6.4
GTTTTAAACAAAAATTGTACAATATAATCTTCCTAT [XGTACX_site2851]	6.43
ATATATATATAATTTTGTACATAATAGCAATTCTAA [XGTACX_site653]	8.32
CAAAACCTTTTATGTACACACATATACATCCCACTT [CACACA_site5716]	6.88
AAAAAAATTGGGAAAAGTACTTGCAGCTAGCTAAAA [XGTACX_site5178]	6.71
TTAAAAAAAATTTCAAGTACAAAGTAATATATATAT [XGTACX_site5718]	8.34
